Laboratory results: ChEMBL document CHEMBL5303300, “EUbOPEN Chemogenomics Library - Multiplex” (2023)
Not every entry of the source has a single result; some have several. The list is limited to them. There may be further records. Values that stand side by side repeat one measurement across runs, samples, wells, individuals or studies.

What was measured:
Type in all cases: toxicity, cell-based
U2OS = experiment: Multiplex assay against U2OS; settings: human, number of replicates 2
Procedure, shortened: (§1)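 Hoechst33342, BioTracker Green Microtubule Cytoskeleton Dye, MitoTracker Red and Annexin V Alexa Fluor 680 were added to live cells at seeding, and imaging on a CQ1 microscope at 37°C and 5% CO2 followed compound addition. Gating by CellPathfinder machine learning separated cells into Hoechst high-intensity objects or normal cells, then normal cells into healthy, pyknosed or fragmented nuclei, then pyknosed cells into mitotic or apoptotic. Per cents of healthy-nucleus cells are reported for the tubulin, mitochondrial-mass and membrane-permeability phenotypes.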

HEK-293T = experiment: Multiplex assay against HEK293T; settings: human, 48 h, 1 µM, compound concentration 1 uM, number of replicates 2; procedure, shortened: as §1
Fibroblast = experiment: Multiplex assay against human fibroblast; settings: number of replicates 2; procedure, shortened: as §1
[1] = 12 h, 1 µM, compound concentration 1 uM
[2] = 12 h, 10 µM, compound concentration 10 uM
[3] = 24 h, 1 µM, compound concentration 1 uM
[4] = 24 h, 10 µM, compound concentration 10 uM
[5] = 48 h, 1 µM, compound concentration 1 uM
[6] = 48 h, 10 µM, compound concentration 10 uM

Structure (SMILES) | Total Cell Count (U2OS; [1]) | Population Fragmented Nuclei (%) (U2OS; [2]) | Total Cell Count (U2OS; [2]) | Population Fragmented Nuclei (%) (U2OS; [3]) | Total Cell Count (U2OS; [3]) | Total Cell Count (U2OS; [4]) | Population Fragmented Nuclei (%) (U2OS; [5]) | Total Cell Count (U2OS; [5]) | Total Cell Count (U2OS; [6]) | Population Fragmented Nuclei (%) (U2OS; [1]) | Population Mitotic Cells (%) (U2OS; [1]) | Population Mitotic Cells (%) (U2OS; [5]) | Population Fragmented Nuclei (%) (U2OS; [6]) | Population Mitochondria Different-Phenotype (%) (U2OS; [4]) | Population Mitotic Cells (%) (U2OS; [4]) | Population Fragmented Nuclei (%) (U2OS; [4]) | other results
COc1cc(N2CCN(C)CC2)ccc1Nc1ncc2c(n1)N(C)c1ccccc1C(=O)N2CC(F)(F)F | 43 and 282 | 16% and 2% | 37 and 167 | 15% and 2% | 39 and 367 | 33 and 194 | 14% and 3% | 54 and 564 | 43 and 230 |  |  |  |  |  |  |  | Population Mitochondria Different-Phenotype (%) (U2OS; [1]): 3% and 16%; Population Healthy Nuclei (%) (U2OS; [6]): 16% and 54%; Population Apoptotic (%) (HEK-293T): 17% and 4%
CCC(=O)O[C@@H](OP(=O)(CCCCc1ccccc1)CC(=O)N1C[C@H](C2CCCCC2)C[C@H]1C(=O)[O-])C(C)C.[Na+] (some centres undefined) | 43 and 248 | 38% and 4% | 26 and 205 | 29% and 3% | 57 and 365 | 21 and 292 | 17% and 3% | 76 and 717 | 37 and 628 | 32% and 3% | 66% and 12% | 50% and 15% | 13% and 2% |  |  |  | Population Mitotic Cells (%) (U2OS; [2]): 0% and 60%; Population Mitotic Cells (%) (U2OS; [3]): 60% and 19%; Population Pyknosed Nuclei (%) (U2OS; [6]): 21% and 5%; Population Apoptotic (%) (Fibroblast; [2]): 54% and 17%
CN(C)C/C=C/C(=O)Nc1ccc(C(=O)N2CCCC(Nc3ncc(Cl)c(-c4c[nH]c5ccccc45)n3)C2)cc1 (centres undefined) | 42 and 234 |  | 25 and 188 |  | 36 and 280 | 168 and 23 |  | 74 and 465 | 175 and 25 | 21% and 6% |  |  | 6% and 28% | 64% and 11% | 6% and 20% |  | Population Mitochondria Different-Phenotype (%) (U2OS; [2]): 0% and 39%; Population Healthy Nuclei (%) (U2OS; [4]): 10% and 39%; Population Mitotic Cells (%) (U2OS; [6]): 7% and 30%; Population Membrane Permeable-Phenotype (%) (Fibroblast; [6]): 5% and 20%
CN(C)CCCN1c2ccccc2Sc2ccc(Cl)cc21.Cl [CHLORPROMAZINE HYDROCHLORIDE] | 28 and 197 | 42% and 5% | 61 and 191 | 46% and 1% | 30 and 271 | 78 and 254 | 41% and 4% | 29 and 552 | 78 and 313 | 50% and 3% | 100% and 33% | 100% and 29% | 48% and 8% |  |  | 46% and 6% | Population Apoptotic (%) (U2OS; [1]): 0% and 66%; Population Apoptotic (%) (U2OS; [2]): 20% and 63%; Population Mitochondria Different-Phenotype (%) (U2OS; [2]): 6% and 21%; Population Apoptotic (%) (U2OS; [3]): 0% and 76%; Population Apoptotic (%) (U2OS; [5]): 0% and 70%; Population Membrane Permeable-Phenotype (%) (U2OS; [5]): 18% and 1%; Population Mitochondria Different-Phenotype (%) (U2OS; [5]): 12% and 1%; Population Mitotic Cells (%) (U2OS; [6]): 7% and 25%; Population Tubulin-Different-Phenotype (%) (Fibroblast; [5]): 22% and 7%
COc1cc2nc(-c3cc(F)ccc3O)nc(N[C@@H]3CNC[C@H]3C(C)(C)O)c2cc1OC.Cl.Cl | 56 and 208 |  | 34 and 189 |  | 52 and 254 | 168 and 27 |  | 63 and 371 | 29 and 168 | 25% and 7% |  |  |  | 40% and 0% |  |  | Population Membrane Permeable-Phenotype (%) (U2OS; [4]): 100% and 0%; Population Tubulin-Different-Phenotype (%) (U2OS; [4]): 100% and 0%; Population Fragmented Nuclei (%) (Fibroblast; [1]): 5% and 16%; Population Fragmented Nuclei (%) (Fibroblast; [2]): 5% and 16%; Population Membrane Permeable-Phenotype (%) (Fibroblast; [2]): 33% and 3%; Population Fragmented Nuclei (%) (Fibroblast; [4]): 5% and 16%
COc1c(OCCCN2CCOCC2)ccc2c1N=C(NC(=O)c1cnc(N)nc1)N1CCN=C21 [COPANLISIB] | 25 and 225 | 51% and 4% | 31 and 165 | 36% and 3% | 25 and 309 | 37 and 217 | 37% and 3% | 25 and 531 | 38 and 244 | 36% and 4% |  |  | 63% and 10% | 37% and 1% |  | 55% and 6% | Population Membrane Permeable-Phenotype (%) (U2OS; [2]): 30% and 4%; Population Mitotic Cells (%) (U2OS; [3]): 0% and 29%; Population Healthy Nuclei (%) (U2OS; [4]): 22% and 71%; Population Membrane Permeable-Phenotype (%) (U2OS; [4]): 50% and 7%; Population Healthy Nuclei (%) (U2OS; [6]): 2% and 53%; Population Membrane Permeable-Phenotype (%) (U2OS; [6]): 100% and 10%; Population Tubulin-Different-Phenotype (%) (U2OS; [6]): 0% and 82%; Population Tubulin-Different-Phenotype (%) (Fibroblast; [2]): 14% and 2%; Population Tubulin-Different-Phenotype (%) (Fibroblast; [6]): 19% and 4%
O=C(Nc1ccc(Cl)c(-c2ccccn2)c1)c1cccc(COc2ccc(Br)cc2CNCCO)c1.O=CO | 27 and 172 | 44% and 10% | 36 and 148 | 17% and 3% | 39 and 197 | 45 and 159 | 20% and 3% | 49 and 256 | 39 and 141 |  |  |  | 39% and 8% |  | 0% and 28% | 33% and 8% | Population Membrane Permeable-Phenotype (%) (Fibroblast; [4]): 21% and 5%
Cn1c(Nc2c(Cl)cccc2Cl)nc2ccc3nc[nH]c(=O)c3c21 | 50 and 212 | 29% and 4% | 54 and 205 | 27% and 3% | 58 and 296 | 70 and 260 | 21% and 2% | 80 and 578 | 86 and 344 | 26% and 5% |  |  | 44% and 13% |  |  | 33% and 7% | Population Membrane Permeable-Phenotype (%) (Fibroblast; [6]): 42% and 13%
CC(C)(C)c1cnc(CSc2cnc(NC(=O)C3CCN(CC(=O)NCCOCCOCCOCCNc4cccc5c4C(=O)N(C4CCC(=O)NC4=O)C5=O)CC3)s2)o1 (centres undefined) | 75 and 329 | 28% and 8% |  |  | 95 and 400 |  |  | 142 and 742 |  |  | 60% and 3% | 78% and 10% |  | 6% and 34% | 34% and 6% |  | Population Apoptotic (%) (U2OS; [5]): 21% and 89%; Population Tubulin-Different-Phenotype (%) (Fibroblast; [1]): 23% and 5%; Population Mitochondria Different-Phenotype (%) (Fibroblast; [6]): 7% and 26%
